Results on 167 variants are retold here after the RNAGym collection of RNA variant scans (doi:10.7554/elife.90254).

B1: LINE1-full (parent)
chain: UACGUAGGUGGUUUUCCCCUGAUAGUGCUAAGGGGGCCUGGAAGUUUGGACUGGGCAGAGCUCAACACAGCGUGGCAAAGUGGCUGUGGCUAGACUGCCUCUCUGGAUUCCUCGUCACUCAGCAGGGCAUCUCUGAGAGAAAUGCC

The source gives no read counts; variants with many changes may rest on few reads.

This data set covers variants of B1. As to the kind of experiment: self-cleavage, relative activity (ratio to wild type); higher = more cleavage; in vitro, sequencing; the parent is a self-cleaving ribozyme.
Regarding A22G A64U U81C G106U, the self-cleavage worked out at 0.24.

Regarding U20C A43G U91C U143A, the self-cleavage came out at 0.63.

In the case of U20C U39A A79G A117U, the self-cleavage is 1.38.

U20A U26A G33A U39C U46C A65G U100C: the self-cleavage is 0.

For U20C A50G U109C U132C, the self-cleavage is 0.71.

On to U20G A78G A92U, for which the self-cleavage is 0.38.

As to A22C U47A A129U, the self-cleavage was 1.24.

For U20C U29C A57C, the self-cleavage came out at 0.

As to A22G A79G U96A A124G, the self-cleavage was found to be 0.22.

On to U20C A22G U104A U108C, for which the self-cleavage stood at 1.7.

A22G A77U A136U: the self-cleavage amounted to 1.14.

For the variant U20C G58U U73C U91C, the self-cleavage stood at 0.15.

Regarding A22G A65G U96A U132A, the self-cleavage is 0.

As for A22G G35U U134C, the self-cleavage came to 1.3.

Regarding U20C U29C A79G U132A U143C, the self-cleavage was found to be 1.25.

Regarding A22G C61U A94U, the self-cleavage was 0.

U20C A94G U108A C123U: the self-cleavage turned out to be 0.25.

A22G C95U U112C: the self-cleavage came out at 0.

U20C C63U G106A A107G U112C: the self-cleavage was found to be 0.21.

Regarding A22G C56U A140U, the self-cleavage was found to be 0.15.

For U20C A31G U46A A138G A141G, the self-cleavage came to 0.87.

Consider A22G A50G A140G, for which the self-cleavage is 0.25.

U20C A79C U130A: the self-cleavage turned out to be 2.7.

Take U20C U96A A124G A142G U143A: the self-cleavage amounted to 0.16.

As to A22G G36C U109A A136G, the self-cleavage was found to be 1.18.

As for U20C U26A U29A, the self-cleavage came to 0.59.

Take U20C A43G A142G: the self-cleavage was 1.52.

For U20C A65G G105A U112C, the self-cleavage worked out at 0.06.

Consider A22G A92G U102A A117U, for which the self-cleavage was found to be 0.12.

As to U20C A78G A121U, the self-cleavage was 0.86.

For U20C A24U A117G, the self-cleavage is 2.87.

In the case of A22G A24G U104G, the self-cleavage worked out at 0.77.

As for A22G A42G A57G U100C, the self-cleavage is 0.

Consider A22G A107G U119A, for which the self-cleavage came out at 2.25.

In the case of U20A A77G U132C, the self-cleavage was 1.65.

Take U20A A79G C120U: the self-cleavage amounted to 1.19.

For the variant A22G G44U G97A A124G, the self-cleavage came out at 0.13.

For U20C C37U U45A U62G U112C, the self-cleavage is 0.02.

Consider U20C U47C A94U A121G A141G, for which the self-cleavage worked out at 0.71.

A22G A43U C76U: the self-cleavage is 0.82.

In the case of G21U U100C U130C, the self-cleavage was found to be 1.78.

On to A22G A50G A64C A67G C68A A141G, for which the self-cleavage is 0.

On to G21A A22C U132C A141U A142G, for which the self-cleavage came to 1.8.

With G21A U85C A124G, the self-cleavage amounted to 0.05.

Turning to U20C A77G U134G, the self-cleavage was determined as 1.81.

Consider U20C U115C U143C, for which the self-cleavage is 1.59.

As for U20A A30G U87C U104C, the self-cleavage worked out at 0.97.

For the variant A22G A59G A140G, the self-cleavage stood at 0.57.

For the variant U20A U85C U115C, the self-cleavage was 0.

For the variant U20A U62C U87C U132C G137A, the self-cleavage amounted to 0.18.

Consider A22G A57G U109C, for which the self-cleavage worked out at 0.64.

Consider U20C U26C U115C A140G, for which the self-cleavage was found to be 1.15.

As to U20C A57C U87C, the self-cleavage turned out to be 0.

For the variant U20G U47C A141G, the self-cleavage turned out to be 0.

Regarding U20C C51A C76U U91C, the self-cleavage was 1.17.

As for U20A U39A A50G A78U, the self-cleavage came out at 1.61.

Consider U20C U130C U134C, for which the self-cleavage stood at 1.15.

For U20C A92G U96A, the self-cleavage came out at 0.13.

With A22G A50G U119C A142G, the self-cleavage turned out to be 1.08.

As to G21A C63U C71G C110A A129C A141G, the self-cleavage was determined as 0.1.

Regarding A22G A65G A79G, the self-cleavage was 0.31.

On to U20C C113A A138G, for which the self-cleavage came to 1.21.

As to U20C A42U A107G, the self-cleavage came out at 0.99.

Turning to U20C U45G A50G, the self-cleavage was found to be 0.92.

As for U20A C95U U108A U130C, the self-cleavage worked out at 0.25.

Take U20C A59G A124U A138U: the self-cleavage turned out to be 0.33.

Take U20A G74A U81C: the self-cleavage came out at 0.92.

As for U20A U73A A92G U100C, the self-cleavage amounted to 0.06.

U20C A67G A79G: the self-cleavage stood at 0.92.

In the case of A22G G32A U62C A65G A117U, the self-cleavage is 0.1.

Turning to U20A A78G U112C A124U, the self-cleavage came to 1.14.

For the variant A22G A65G A67U, the self-cleavage is 0.09.

For the variant U20G G41A A42G U46C G88A U134C, the self-cleavage is 0.19.

For U20A A31C U102C, the self-cleavage came out at 1.62.

In the case of U20A G33A U96C, the self-cleavage worked out at 0.13.

On to U20C U132C U143A, for which the self-cleavage is 1.02.

With A22G A24U U100C, the self-cleavage came out at 1.53.

For U20G A30G A50G, the self-cleavage came to 0.

Turning to G21A U62C A67G A92G G114A, the self-cleavage was determined as 0.

U20C A30G U115C: the self-cleavage was determined as 2.7.

With A22C A78G U115C, the self-cleavage turned out to be 1.97.

U20A U26A A124G: the self-cleavage is 1.14.

Regarding U20A A107U U112C, the self-cleavage amounted to 1.07.

For A22G G34A G40A U115C, the self-cleavage stood at 1.04.

Regarding U20A U91C G114A, the self-cleavage is 0.84.

As to U20G U62C C99U U134A, the self-cleavage was found to be 0.11.

Take A22G A57G C68U U132G: the self-cleavage came out at 0.37.

For the variant U20C C95U U130A, the self-cleavage amounted to 0.22.

Turning to A22G A78G U81C U115C, the self-cleavage was determined as 0.

For U20G U73A U130C, the self-cleavage worked out at 1.21.

On to A22G C37U U73A, for which the self-cleavage came to 0.98.

As to A22G A42G U112C U119C, the self-cleavage came out at 0.

With U20G A22G U46C A140G, the self-cleavage is 1.05.

With A22G A65G U85A U112C, the self-cleavage came to 0.

Consider U20A U112A A140G, for which the self-cleavage worked out at 1.76.

Take U20C A59G A136G: the self-cleavage was determined as 0.22.

A22G A121G U134A: the self-cleavage was 0.86.

In the case of G21A U52A A94G U143C, the self-cleavage amounted to 0.2.

As to U20C U87G U132A, the self-cleavage came out at 0.14.

As for U20C A59G A64G, the self-cleavage was 0.16.

On to U20A U119G A140G, for which the self-cleavage stood at 1.76.

Consider U20A G86U A141G, for which the self-cleavage was determined as 0.05.

Turning to U20A U29C A59G U130C U134G, the self-cleavage was 0.

Consider G21U A42G A140G, for which the self-cleavage was determined as 2.27.

U20A A69G A124G: the self-cleavage was 0.22.

With A22G A42G A43G, the self-cleavage stood at 1.31.

As to G21A A57G U62C, the self-cleavage was found to be 0.

U20C U23C C76U A94G: the self-cleavage is 0.71.

In the case of U20A G36A A42G, the self-cleavage came to 0.93.

With U20C G93A U102C, the self-cleavage was 0.07.

As to U20C U45A G83A G139A, the self-cleavage came out at 1.03.

Take U20C U45C A57U: the self-cleavage came to 0.31.

U20A U46A U134A A138G: the self-cleavage was found to be 2.27.

With U20C U47C A65G A117U U130A, the self-cleavage was found to be 0.

As for U20C A42G C61U U119A A124U, the self-cleavage came to 0.02.

For the variant U20C U46G U62C A94U, the self-cleavage was 0.09.

As for U20C U23C A79G U96A U119C, the self-cleavage is 0.

Consider U20A U119A U130C U143C, for which the self-cleavage is 1.59.

With U20A U91A A138G U143C, the self-cleavage came to 1.37.

On to U20A A65G A94G, for which the self-cleavage is 0.4.

For the variant U20G G36A A138U U143C, the self-cleavage amounted to 0.67.

For U20A U45C A78G, the self-cleavage was 1.42.

Regarding U20C A94G A107U A138G, the self-cleavage came to 0.27.

For the variant U20C U26C A42G A65U A138G, the self-cleavage came to 0.39.

Take U20G U52C U96A: the self-cleavage was 0.31.

Regarding U20C U87A U109C, the self-cleavage came to 0.44.

Take U20C U46A A69G U85C: the self-cleavage amounted to 0.32.

For the variant U20C U62C U100A, the self-cleavage worked out at 0.13.

In the case of A22G A69G U73A, the self-cleavage came to 0.6.

Regarding A22G A43G U52A, the self-cleavage amounted to 1.19.

On to U20C U45G U73A A117U, for which the self-cleavage amounted to 1.66.

As for A22G A57U A69G U81C, the self-cleavage is 0.

On to A22G A65U A142G, for which the self-cleavage came to 0.45.

As to U20A U46A U100A, the self-cleavage stood at 0.86.

In the case of U20G U26A A94G C145U, the self-cleavage was found to be 0.36.

With G21A U73C U87A U112A U134A, the self-cleavage turned out to be 0.12.

Turning to U20A U45C A67G U73C A79U C123U, the self-cleavage came out at 2.8.

U20C C76U G82C: the self-cleavage worked out at 1.51.

A22G A42G A64U C113U: the self-cleavage came out at 0.49.

On to U20C U73C U96A, for which the self-cleavage was found to be 0.12.

Regarding U20C A67G A69G, the self-cleavage amounted to 0.

As for U20C U87A A136G, the self-cleavage worked out at 0.08.

Consider G21A A124U A142G, for which the self-cleavage amounted to 1.48.

In the case of U20A U73A C110U, the self-cleavage was found to be 1.38.

As for U20A A43C G60A, the self-cleavage worked out at 0.06.

Take U20C G34A A117G: the self-cleavage is 1.59.

A22G A59G A78G: the self-cleavage turned out to be 0.19.

In the case of U20C U26C A59G U81A A94U U109A, the self-cleavage came to 0.28.

Take U20C U96A A107G: the self-cleavage came out at 0.12.

As for U20A A30G A67U U85C, the self-cleavage worked out at 0.22.

For A22G G32A U130G, the self-cleavage came to 1.39.

G21A U26C A79G U100C U102C: the self-cleavage is 0.

As for U20C A117U U119A, the self-cleavage was 1.75.

Regarding U20C A92G C131G, the self-cleavage came out at 0.

As for A22G A94G U119C, the self-cleavage came to 0.54.

For the variant U20C A43C U52A C103U, the self-cleavage worked out at 1.84.

In the case of A22G A30U U52C, the self-cleavage was 0.42.

As for U20C G32A A94G A136G, the self-cleavage stood at 0.63.

For A22G C71G A124U, the self-cleavage is 0.36.

A22G A59U G114A A129U: the self-cleavage turned out to be 0.9.

For U20A U81A A94U, the self-cleavage was 0.52.

With U20C U23C G82A G106A, the self-cleavage came to 1.93.

For U20C U73C U85A, the self-cleavage was 0.07.

In the case of A22G A42G A59G A79U U112C A117U A129U, the self-cleavage worked out at 0.64.

As to A22G A124G U130C A140G, the self-cleavage amounted to 2.92.

Turning to U20C U26A A50U U109C U115C A121G, the self-cleavage amounted to 0.

Take U20C C118U A138G: the self-cleavage amounted to 1.34.
